Residue numbers refer to the chain shown, from its start. The list shows a part of the results.
T1: RBFOX1 RRM RbFoxmut (Fox-RRM*) (Homo sapiens, UniProt Q9NWB1 109-208, R118D;E147R;N151S;E152T)
T1 sequence: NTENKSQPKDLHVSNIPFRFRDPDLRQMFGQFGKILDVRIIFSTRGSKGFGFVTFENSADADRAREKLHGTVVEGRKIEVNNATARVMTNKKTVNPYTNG

B1: CAUCCAG (DNA:RNA)
RNA: GGGAGACCGGAAUUCAGAUUGUCCCAUCCAGUUAAAUCCCGUCGUAGCCACCA
DNA 1: CAATCTGAATTCCGGTCTCCC
DNA 2: TGGTGGCTACGACGGGATT
B2: CAGAUGG (DNA:RNA)
RNA: B1 RNA with U27G, C28A, C29U, A30G
DNA 1: CAATCTGAATTCCGGTCTCCC
DNA 2: TGGTGGCTACGACGGGATT
B3: AAGAAGA (DNA:RNA)
RNA: B1 RNA with C25A, U27G, C28A, C29A, A30G, G31A
DNA 1: CAATCTGAATTCCGGTCTCCC
DNA 2: TGGTGGCTACGACGGGATT
B4: AAGAACC (DNA:RNA)
RNA: B1 RNA with C25A, U27G, C28A, C29A, A30C, G31C
DNA 1: CAATCTGAATTCCGGTCTCCC
DNA 2: TGGTGGCTACGACGGGATT
B5: ACGGCAA (DNA:RNA)
RNA: B1 RNA with C25A, A26C, U27G, C28G, G31A
DNA 1: CAATCTGAATTCCGGTCTCCC
DNA 2: TGGTGGCTACGACGGGATT
B6: ACGGUUC (DNA:RNA)
RNA: GGGAGACCGGAAUUCAGAUUGUCCACGGUUCUUAAAUCCCGUCGUAGCCACCA
DNA 1: CAATCTGAATTCCGGTCTCCC
DNA 2: TGGTGGCTACGACGGGATT
B7: CAAGAUG (DNA:RNA)
RNA: B1 RNA with U27A, C28G, C29A, A30U
DNA 1: CAATCTGAATTCCGGTCTCCC
DNA 2: TGGTGGCTACGACGGGATT
B8: ACCCCGA (DNA:RNA)
RNA: B6 RNA with G27C, G28C, U29C, U30G, C31A
DNA 1: CAATCTGAATTCCGGTCTCCC
DNA 2: TGGTGGCTACGACGGGATT
B9: CGCCAUU (DNA:RNA)
RNA: B1 RNA with A26G, U27C, C29A, A30U, G31U
DNA 1: CAATCTGAATTCCGGTCTCCC
DNA 2: TGGTGGCTACGACGGGATT
B10: CAUGCUA (DNA:RNA)
RNA: B1 RNA with C28G, A30U, G31A
DNA 1: CAATCTGAATTCCGGTCTCCC
DNA 2: TGGTGGCTACGACGGGATT
B11: GUUACCA (DNA:RNA)
RNA: B1 RNA with C25G, A26U, C28A, A30C, G31A
DNA 1: CAATCTGAATTCCGGTCTCCC
DNA 2: TGGTGGCTACGACGGGATT
B12: GUCAUCU (DNA:RNA)
RNA: B6 RNA with A25G, C26U, G27C, G28A, U30C, C31U
DNA 1: CAATCTGAATTCCGGTCTCCC
DNA 2: TGGTGGCTACGACGGGATT
B13: UAAUAAU (DNA:RNA)
RNA: B1 RNA with C25U, U27A, C28U, C29A, G31U
DNA 1: CAATCTGAATTCCGGTCTCCC
DNA 2: TGGTGGCTACGACGGGATT
B14: CAGUACG (DNA:RNA)
RNA: B1 RNA with U27G, C28U, C29A, A30C
DNA 1: CAATCTGAATTCCGGTCTCCC
DNA 2: TGGTGGCTACGACGGGATT
B15: UGUUCAU (DNA:RNA)
RNA: B1 RNA with C25U, A26G, C28U, G31U
DNA 1: CAATCTGAATTCCGGTCTCCC
DNA 2: TGGTGGCTACGACGGGATT
B16: UGGUACA (DNA:RNA)
RNA: B6 RNA with A25U, C26G, G28U, U29A, U30C, C31A
DNA 1: CAATCTGAATTCCGGTCTCCC
DNA 2: TGGTGGCTACGACGGGATT
B17: AACUUAG (DNA:RNA)
RNA: B1 RNA with C25A, U27C, C28U, C29U
DNA 1: CAATCTGAATTCCGGTCTCCC
DNA 2: TGGTGGCTACGACGGGATT
B18: AAGUAUA (DNA:RNA)
RNA: B6 RNA with C26A, G28U, U29A, C31A
DNA 1: CAATCTGAATTCCGGTCTCCC
DNA 2: TGGTGGCTACGACGGGATT
B19: AACGCAU (DNA:RNA)
RNA: B1 RNA with C25A, U27C, C28G, G31U
DNA 1: CAATCTGAATTCCGGTCTCCC
DNA 2: TGGTGGCTACGACGGGATT
B20: CCUCUGC (DNA:RNA)
RNA: B6 RNA with A25C, G27U, G28C, U30G
DNA 1: CAATCTGAATTCCGGTCTCCC
DNA 2: TGGTGGCTACGACGGGATT
B21: UACAAUU (DNA:RNA)
RNA: B6 RNA with A25U, C26A, G27C, G28A, U29A, C31U
DNA 1: CAATCTGAATTCCGGTCTCCC
DNA 2: TGGTGGCTACGACGGGATT
B22: AAUAGUU (DNA:RNA)
RNA: B6 RNA with C26A, G27U, G28A, U29G, C31U
DNA 1: CAATCTGAATTCCGGTCTCCC
DNA 2: TGGTGGCTACGACGGGATT
B23: CCUAAAU (DNA:RNA)
RNA: B1 RNA with A26C, C28A, C29A, G31U
DNA 1: CAATCTGAATTCCGGTCTCCC
DNA 2: TGGTGGCTACGACGGGATT
B24: GAGAACG (DNA:RNA)
RNA: B1 RNA with C25G, U27G, C28A, C29A, A30C
DNA 1: CAATCTGAATTCCGGTCTCCC
DNA 2: TGGTGGCTACGACGGGATT
B25: UCGUGUG (DNA:RNA)
RNA: B6 RNA with A25U, G28U, U29G, C31G
DNA 1: CAATCTGAATTCCGGTCTCCC
DNA 2: TGGTGGCTACGACGGGATT
B26: UCGCUCG (DNA:RNA)
RNA: B6 RNA with A25U, G28C, U30C, C31G
DNA 1: CAATCTGAATTCCGGTCTCCC
DNA 2: TGGTGGCTACGACGGGATT
B27: GCUUCUC (DNA:RNA)
RNA: B6 RNA with A25G, G27U, G28U, U29C
DNA 1: CAATCTGAATTCCGGTCTCCC
DNA 2: TGGTGGCTACGACGGGATT
B28: GUAGUAA (DNA:RNA)
RNA: B6 RNA with A25G, C26U, G27A, U30A, C31A
DNA 1: CAATCTGAATTCCGGTCTCCC
DNA 2: TGGTGGCTACGACGGGATT
B29: AUAAGUA (DNA:RNA)
RNA: B6 RNA with C26U, G27A, G28A, U29G, C31A
DNA 1: CAATCTGAATTCCGGTCTCCC
DNA 2: TGGTGGCTACGACGGGATT
B30: CAAAUGC (DNA:RNA)
RNA: B6 RNA with A25C, C26A, G27A, G28A, U30G
DNA 1: CAATCTGAATTCCGGTCTCCC
DNA 2: TGGTGGCTACGACGGGATT
B31: AGAGGCC (DNA:RNA)
RNA: B6 RNA with C26G, G27A, U29G, U30C
DNA 1: CAATCTGAATTCCGGTCTCCC
DNA 2: TGGTGGCTACGACGGGATT

target: T1, RBFOX1 RRM RbFoxmut (Fox-RRM*); test: EMSA; HiTS-Eq, 1 nM pool, 10 min; buffer printed only for the single-RNA assays: 10 mM Tris pH 7.5, 150 mM NaCl, 3.4 mM EDTA, 0.001% NP-40, 30 C; settings: tags: His6 N-terminal (pET28a); label: 5' 32P
How it was run: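 Purified wild-type or mutant RbFox RRM at increasing concentrations was equilibrated with 1 nM of 5′-radiolabelled RNA carrying 7 randomized nucleotides for 10 min in 50 µL. Unbound RNA was separated by 8% native PAGE and sequenced. Relative association constants came from read-count changes of each RNA species compared with the control reaction, normalised to the cognate motif.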

Question: For B1, which binding signal is on record?
Answer: 0.12 KA relative to UGCAUGU

Question: For B2, which binding signal is on record?
Answer: 0.0858 KA relative to UGCAUGU

Question: Which binding signal does the source give for B3 here?
Answer: 0.104 KA relative to UGCAUGU

Question: Which binding signal does the source give for B4 here?
Answer: 0.0853 KA relative to UGCAUGU

Question: How did the binding signal turn out when B5 was run?
Answer: 0.0858 KA relative to UGCAUGU

Question: Which binding signal does the source give for B6 here?
Answer: 0.122 KA relative to UGCAUGU

Question: B7 was tested. Which binding signal did it give?
Answer: 0.0773 KA relative to UGCAUGU

Question: Which binding signal does the source give for B8 here?
Answer: 0.0644 KA relative to UGCAUGU

Question: How did the binding signal turn out when B9 was run?
Answer: 0.0791 KA relative to UGCAUGU

Question: With B10 as the binder, how does the binding signal read?
Answer: 0.133 KA relative to UGCAUGU

Question: How did the binding signal turn out when B11 was run?
Answer: 0.0752 KA relative to UGCAUGU

Question: With B12 as the binder, how does the binding signal read?
Answer: 0.111 KA relative to UGCAUGU

Question: Which binding signal does the source give for B13 here?
Answer: 0.0595 KA relative to UGCAUGU

Question: B14 was tested. Which binding signal did it give?
Answer: 0.124 KA relative to UGCAUGU

Question: How did the binding signal turn out when B15 was run?
Answer: 0.117 KA relative to UGCAUGU

Question: How did the binding signal turn out when B16 was run?
Answer: 0.107 KA relative to UGCAUGU

Question: B17 was tested. Which binding signal did it give?
Answer: 0.102 KA relative to UGCAUGU

Question: How did the binding signal turn out when B18 was run?
Answer: 0.191 KA relative to UGCAUGU

Question: Which binding signal does the source give for B19 here?
Answer: 0.104 KA relative to UGCAUGU

Question: Which binding signal does the source give for B20 here?
Answer: 0.0985 KA relative to UGCAUGU

Question: How did the binding signal turn out when B21 was run?
Answer: 0.0539 KA relative to UGCAUGU

Question: For B22, which binding signal is on record?
Answer: 0.106 KA relative to UGCAUGU

Question: For B23, which binding signal is on record?
Answer: 0.0638 KA relative to UGCAUGU

Question: For B24, which binding signal is on record?
Answer: 0.347 KA relative to UGCAUGU

Question: Which binding signal does the source give for B25 here?
Answer: 0.2 KA relative to UGCAUGU

Question: How did the binding signal turn out when B26 was run?
Answer: 0.148 KA relative to UGCAUGU

Question: For B27, which binding signal is on record?
Answer: 0.0727 KA relative to UGCAUGU

Question: Which binding signal does the source give for B28 here?
Answer: 0.126 KA relative to UGCAUGU

Question: How did the binding signal turn out when B29 was run?
Answer: 0.149 KA relative to UGCAUGU

Question: Which binding signal does the source give for B30 here?
Answer: 0.0743 KA relative to UGCAUGU

Question: For B31, which binding signal is on record?
Answer: 0.143 KA relative to UGCAUGU
